In PubChem BioAssay (NCATS):
This is one part of the list. Further columns of the screen follow, without active or inactive calls. Most of these compounds were active or inconclusive in the main read-out, so they are no random draw. Words in brackets tell the shape of the fitted curve; partial curves, single points and poor fits give uncertain potencies.

Target: Histamine N-methyltransferase (Homo sapiens) (UniProt P50135)
Experiment: Confirmatory Screen for Target Class Profiling of Small Molecule Inhibitors of Methyltransferases (AID 1745852);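 also: inhibitor potency for blocking SAH production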
Conditions: MTase-Glo luminescence, SAH detection, recombinant enzyme; measured here: HNMT inhibition potency
Tags tell the direction and shape of the fitted curve.

UniProt P50135, sequence (P50135 whole entry, looked up): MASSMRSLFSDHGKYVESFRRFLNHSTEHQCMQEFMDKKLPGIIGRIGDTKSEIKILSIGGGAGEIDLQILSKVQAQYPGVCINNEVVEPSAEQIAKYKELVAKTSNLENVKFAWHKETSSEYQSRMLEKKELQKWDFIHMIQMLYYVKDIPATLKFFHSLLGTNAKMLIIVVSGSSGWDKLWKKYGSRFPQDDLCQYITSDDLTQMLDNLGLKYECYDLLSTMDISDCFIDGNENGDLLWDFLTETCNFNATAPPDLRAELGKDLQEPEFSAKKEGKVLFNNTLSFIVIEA

Structure (SMILES)	IC50
O=C(CCc1ccccc1)N1CCNc2cnc(Nc3cccnc3)nc2C1	39.3 µM [falling, single point]
Cc1c(OCc2ccc(C(=O)O)o2)ccc2c(-c3ccccc3)cc(=O)oc12	34.1 µM [falling, single point]
CC(C)CCNC(=O)c1ccc2c(=O)[nH]c3c(C(=O)NC(C)C)sc(=S)n3c2c1	42.9 µM [falling, single point]
O=C(NCCc1ccccc1)c1ccc2c(=O)[nH]c3c(C(=O)NCC4CCCO4)sc(=S)n3c2c1 (stereo not drawn)	24.1 µM [falling, partial curve]
N#Cc1cccc(-c2c[nH]c3ncnc(N4CCOCC4)c23)c1	19.2 µM [falling, partial curve]
O=C(O)c1ccc(Nc2nc3ccccc3n3cnnc23)cc1	21.7 µM [falling, partial curve]
Cc1oc(C(=O)O)cc1COc1ccc2c(-c3ccccc3)cc(=O)oc2c1C	30.4 µM [falling, single point]
N#C/C(=C\c1ccc(O)c(O)c1)C(=O)NCCCNC(=O)/C(C#N)=C/c1ccc(O)c(O)c1	6.85 µM [falling, full curve]
CC(C)(O)c1ccc2c(c1)ncn2-c1cccc(-c2ccccc2C#N)c1	27.1 µM [falling, single point]
CCOc1cc(OCC)c2c(-c3ccccc3)cc(=O)oc2c1	17.1 µM [falling, partial curve]
CCCNc1ccc2ncc(-c3ccc4[nH]ncc4c3)n2n1	5.41 µM [falling, full curve]
O=C(NCc1ccc2c(c1)OCO2)c1sc(=S)n2c1[nH]c(=O)c1ccc(Cl)cc12	21.5 µM [falling, partial curve]
O=C(NCc1ccc2c(c1)OCO2)c1sc(=S)n2c1[nH]c(=O)c1cc(Cl)ccc12	42.9 µM [falling, single point]
O=C1c2ccccc2-c2nc3nnnn3nc21 (tested in a mixture with another compound)	1.21 µM [falling, full curve]
COc1ccc(-c2cnc3ccc(NCc4ccc(S(N)(=O)=O)cc4)nn23)cc1OC	24.1 µM [falling, partial curve]
Cc1ccc(C)c(N2CCN(C(=O)c3ccc4c(=O)[nH]c5c(C(=O)NC(C)C)sc(=S)n5c4c3)CC2)c1	48.2 µM [falling, partial curve, poor fit]
O=C(NCCc1ccc(Cl)cc1)c1ccc2c(=O)[nH]c3c(C(=O)NC4CCCC4)sc(=S)n3c2c1	30.4 µM [falling, single point]
COc1cc2ncnc(Nc3cccc(I)c3)c2cc1OC	24.1 µM [falling, partial curve]
COc1ccc(-c2nnn3c2nc(N2CCOCC2)c2ccccc23)cc1	21.5 µM [falling, partial curve]
COc1cc2c(cc1-c1c(C)noc1C)ncc1[nH]c(=O)n(C(C)c3ccccn3)c12 (stereo not drawn)	12.2 µM [falling, partial curve]
O=c1cc(O)cc(/C=C\c2ccc(O)c(O)c2)o1	21.7 µM [falling, single point]
CN(C)CCCCCCNC(=O)c1cccc(-c2cc(O)c3ncccc3c2)c1	17.2 µM [falling, partial curve]
COc1ccc(-c2nc3ccncc3[nH]2)cc1	15.6 µM [falling, partial curve]
c1nc(NCC2CCOC2)c2cc(-c3ccc4c(c3)OCO4)ccc2n1 (stereo not drawn)	27.1 µM [falling, single point]
CCCc1cc2c(-c3ccccc3)cc(=O)oc2cc1OCc1ccc(C(=O)O)o1	27.1 µM [falling, single point]
CC[N+]1(C/C2=C/CCCCCC2)CCC(NC(=O)C2c3cc(Cl)ccc3Oc3ccc(Cl)cc32)CC1 (stereo not drawn)	24.1 µM [falling, partial curve]
CN(Cc1cccs1)c1ncnc2ccc(-c3ccc4c(c3)OCO4)cc12	13.6 µM [falling, full curve]
O=C1NC(=O)C(c2c[nH]c3ccccc23)=C1c1c[nH]c2ccccc12	27.3 µM [falling, single point]

Target: Nicotinamide N-methyltransferase (Homo sapiens) (UniProt P40261)
UniProt P40261, sequence (P40261 whole entry, looked up): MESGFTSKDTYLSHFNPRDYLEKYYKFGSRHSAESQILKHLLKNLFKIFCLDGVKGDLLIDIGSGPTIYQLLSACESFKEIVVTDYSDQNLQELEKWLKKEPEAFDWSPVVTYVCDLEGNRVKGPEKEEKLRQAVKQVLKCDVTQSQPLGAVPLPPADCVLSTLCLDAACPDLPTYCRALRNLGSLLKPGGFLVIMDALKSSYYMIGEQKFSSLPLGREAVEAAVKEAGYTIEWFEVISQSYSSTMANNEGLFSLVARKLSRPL
Experiment: as above
Conditions: MTase-Glo luminescence, SAH detection, recombinant enzyme; measured here: NNMT inhibition potency

Structure (SMILES)	IC50
O=C(CCc1ccccc1)N1CCNc2cnc(Nc3cccnc3)nc2C1	35 µM [falling, partial curve]
Cc1c(OCc2ccc(C(=O)O)o2)ccc2c(-c3ccccc3)cc(=O)oc12	24.1 µM [falling, partial curve]
CC(C)CCNC(=O)c1ccc2c(=O)[nH]c3c(C(=O)NC(C)C)sc(=S)n3c2c1	24.1 µM [falling, single point]
O=C(NCCc1ccccc1)c1ccc2c(=O)[nH]c3c(C(=O)NCC4CCCO4)sc(=S)n3c2c1 (stereo not drawn)	24.1 µM [falling, partial curve]
N#Cc1cccc(-c2c[nH]c3ncnc(N4CCOCC4)c23)c1	24.1 µM [falling, partial curve]
O=C(O)c1ccc(Nc2nc3ccccc3n3cnnc23)cc1	15.3 µM [falling, partial curve]
Cc1oc(C(=O)O)cc1COc1ccc2c(-c3ccccc3)cc(=O)oc2c1C	24.1 µM [falling, partial curve]
N#C/C(=C\c1ccc(O)c(O)c1)C(=O)NCCCNC(=O)/C(C#N)=C/c1ccc(O)c(O)c1	15.3 µM [falling, partial curve]
CC(C)(O)c1ccc2c(c1)ncn2-c1cccc(-c2ccccc2C#N)c1	24.1 µM [falling, partial curve]
CCOc1cc(OCC)c2c(-c3ccccc3)cc(=O)oc2c1	15.2 µM [falling, partial curve]
CCCNc1ccc2ncc(-c3ccc4[nH]ncc4c3)n2n1	7.64 µM [falling, full curve]
O=C(NCc1ccc2c(c1)OCO2)c1sc(=S)n2c1[nH]c(=O)c1ccc(Cl)cc12	21.5 µM [falling, partial curve]
O=C(NCc1ccc2c(c1)OCO2)c1sc(=S)n2c1[nH]c(=O)c1cc(Cl)ccc12	24.1 µM [falling, partial curve]
O=C1c2ccccc2-c2nc3nnnn3nc21 (tested in a mixture with another compound)	0.961 µM [falling, full curve]
Cc1ccc(C)c(N2CCN(C(=O)c3ccc4c(=O)[nH]c5c(C(=O)NC(C)C)sc(=S)n5c4c3)CC2)c1	21.5 µM [falling, partial curve]
O=C(NCCc1ccc(Cl)cc1)c1ccc2c(=O)[nH]c3c(C(=O)NC4CCCC4)sc(=S)n3c2c1	24.1 µM [falling, partial curve]
COc1cc2ncnc(Nc3cccc(I)c3)c2cc1OC	24.1 µM [falling, partial curve]
COc1ccc(-c2nnn3c2nc(N2CCOCC2)c2ccccc23)cc1	21.5 µM [falling, partial curve, poor fit]
COc1cc2c(cc1-c1c(C)noc1C)ncc1[nH]c(=O)n(C(C)c3ccccn3)c12 (stereo not drawn)	21.7 µM [falling, partial curve, poor fit]
COc1ccc(-c2nc3ccncc3[nH]2)cc1	13.9 µM [falling, partial curve]
c1nc(NCC2CCOC2)c2cc(-c3ccc4c(c3)OCO4)ccc2n1 (stereo not drawn)	30.4 µM [falling, partial curve, poor fit]
CCCc1cc2c(-c3ccccc3)cc(=O)oc2cc1OCc1ccc(C(=O)O)o1	24.1 µM [falling, partial curve]
CC[N+]1(C/C2=C/CCCCCC2)CCC(NC(=O)C2c3cc(Cl)ccc3Oc3ccc(Cl)cc32)CC1 (stereo not drawn)	21.5 µM [falling, partial curve, poor fit]
CN(Cc1cccs1)c1ncnc2ccc(-c3ccc4c(c3)OCO4)cc12	12.1 µM [falling, partial curve]
O=C1NC(=O)C(c2c[nH]c3ccccc23)=C1c1c[nH]c2ccccc12	48.5 µM [falling, partial curve, poor fit]
